Measured values: paper PMC4336329 (PLoS ONE, 2015)
The campaign covered roughly 310,000 compounds. About 2,200 (0.71%) showed an effect of 50% or more. The effect is printed as a negative number. Some of the results follow.

Each compound was assayed against human ether-à-go-go-related gene (hERG) potassium channel (human, UniProt Q12809) (assay: primary screen, population patch clamp on CHO cells stably expressing hERG).
Chain of human ether-à-go-go-related gene (hERG) potassium channel (Q12809 whole entry, looked up): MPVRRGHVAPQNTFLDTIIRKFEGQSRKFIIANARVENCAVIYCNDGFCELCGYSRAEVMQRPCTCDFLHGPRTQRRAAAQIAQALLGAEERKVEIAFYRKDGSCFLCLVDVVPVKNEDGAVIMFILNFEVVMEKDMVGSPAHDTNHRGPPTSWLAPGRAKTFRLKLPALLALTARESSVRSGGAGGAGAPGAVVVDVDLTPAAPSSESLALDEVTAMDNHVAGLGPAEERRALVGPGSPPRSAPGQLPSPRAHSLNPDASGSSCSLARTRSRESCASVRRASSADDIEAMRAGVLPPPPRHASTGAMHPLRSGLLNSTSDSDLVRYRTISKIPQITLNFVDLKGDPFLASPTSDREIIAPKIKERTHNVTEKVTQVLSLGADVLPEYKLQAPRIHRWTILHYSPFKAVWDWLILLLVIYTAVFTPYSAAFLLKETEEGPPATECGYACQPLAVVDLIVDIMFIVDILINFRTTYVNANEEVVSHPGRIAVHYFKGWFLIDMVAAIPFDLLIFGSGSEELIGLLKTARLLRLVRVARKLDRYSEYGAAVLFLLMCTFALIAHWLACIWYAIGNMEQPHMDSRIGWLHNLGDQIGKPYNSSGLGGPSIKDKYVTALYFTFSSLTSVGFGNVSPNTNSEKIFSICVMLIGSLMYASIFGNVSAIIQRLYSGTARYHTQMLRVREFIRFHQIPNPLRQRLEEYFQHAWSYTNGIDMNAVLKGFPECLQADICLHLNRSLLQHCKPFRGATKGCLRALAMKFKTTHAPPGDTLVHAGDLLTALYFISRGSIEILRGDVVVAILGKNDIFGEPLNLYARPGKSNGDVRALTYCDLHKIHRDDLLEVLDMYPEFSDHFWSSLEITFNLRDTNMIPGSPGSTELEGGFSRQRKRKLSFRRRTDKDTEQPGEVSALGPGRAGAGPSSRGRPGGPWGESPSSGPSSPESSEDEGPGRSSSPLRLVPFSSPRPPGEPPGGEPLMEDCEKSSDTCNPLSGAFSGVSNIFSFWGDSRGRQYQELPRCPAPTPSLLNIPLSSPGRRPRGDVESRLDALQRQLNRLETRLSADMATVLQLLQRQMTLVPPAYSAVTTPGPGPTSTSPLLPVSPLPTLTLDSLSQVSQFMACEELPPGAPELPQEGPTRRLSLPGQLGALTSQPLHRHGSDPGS
With O=C(NC1CCCC1)C(c1ccc(F)cc1)N(C(=O)c1csnn1)C1CCCC1 (stereo not shown) the “hERG current change (%, negative = inhibition) at 1uM” value was 5.89%.
For CCN(C(=O)c1ccc(S(=O)(=O)N(C)C)cc1)C(C)C(=O)Nc1ccc(C)cc1 (stereo not shown), the “hERG current change (%, negative = inhibition) at 1uM” value was 15.2%.
For Cc1oc(-c2ccccc2F)nc1CS(=O)(=O)CC(=O)NCCCN1CCc2ccccc2C1, the “hERG current change (%, negative = inhibition) at 1uM” value was -12.4%.
In the case of CC1CCN(CCCNS(=O)(=O)c2cc(Br)cc3c2N(C(=O)C2CC2)CC3)CC1, the “hERG current change (%, negative = inhibition) at 1uM” value is reported as 11.9%.
In the case of CCSc1nc(N)c2c3c(sc2n1)CN(C)CC3, the “hERG current change (%, negative = inhibition) at 1uM” value is reported as 5.6%.
For CC(=O)N(Cc1ccco1)Cc1cc2cccc(C)c2n2nnnc12, the “hERG current change (%, negative = inhibition) at 1uM” value was 1.88%.
Cc1cccc(C)c1NC(=O)CNC(=O)c1cccc(S(=O)(=O)NCc2cccs2)c1 was tested, and the “hERG current change (%, negative = inhibition) at 1uM” value was 7.29%.
In the case of O=C(Nc1ccc(N2CCCCC2)cc1)c1cc([N+](=O)[O-])cc([N+](=O)[O-])c1, the “hERG current change (%, negative = inhibition) at 1uM” value is reported as 8.98%.
For Cc1cc(C(=O)CN2C(=O)NC3(CCCCC3)C2=O)c(C)n1Cc1ccc2c(c1)OCO2, the “hERG current change (%, negative = inhibition) at 1uM” value was 10.5%.
For CCn1cc(C(=O)OCC(=O)NCc2ccccc2Cl)c(=O)c2ccc(C)nc21, the “hERG current change (%, negative = inhibition) at 1uM” value was 13.1%.
In the case of C=CCn1c(-c2cccn(Cc3ccccc3)c2=O)n[nH]c1=S, the “hERG current change (%, negative = inhibition) at 1uM” value is reported as 15.8%.
In the case of Cc1ccc(S(=O)(=O)c2nc(S(C)(=O)=O)sc2N2CCC(C(N)=O)CC2)cc1, the “hERG current change (%, negative = inhibition) at 1uM” value is reported as 0.161%.
With COc1cccc(CNC(=O)C(CCSC)NS(=O)(=O)c2ccc3c(c2)oc(=O)n3C)c1 (stereo not shown) the “hERG current change (%, negative = inhibition) at 1uM” value was 3.54%.
In the case of CN(C)C(=O)c1cc(Cl)ccc1Sc1cc(Cl)ccc1Cl, the “hERG current change (%, negative = inhibition) at 1uM” value is reported as 7.7%.
In the case of O=C(NCc1ccccc1Cl)c1cccc(NC(=O)c2ccccc2)c1, the “hERG current change (%, negative = inhibition) at 1uM” value is reported as 5.41%.
NS(=O)(=O)c1ccc(-n2ncc3c(=O)[nH]c(SCC(=O)Nc4nccs4)nc32)cc1 was tested, and the “hERG current change (%, negative = inhibition) at 1uM” value was 13.3%.
With Cc1cc2c(C)nc(N/N=C/c3ccc(F)cc3)nc2o1 the “hERG current change (%, negative = inhibition) at 1uM” value was -6.36%.
With COc1cc(SC)ccc1C(=O)Nc1cc(C)c(OCC(=O)N2CCOCC2)c(C)c1 the “hERG current change (%, negative = inhibition) at 1uM” value was 5.52%.
CC(Oc1cccc(F)c1)C(=O)Nc1ccc(N2CCOCC2)cc1 (stereo not shown) was tested, and the “hERG current change (%, negative = inhibition) at 1uM” value was 3.07%.
In the case of O=C(NCc1ccco1)C1CCCN1S(=O)(=O)c1ccccc1C(F)(F)F (stereo not shown), the “hERG current change (%, negative = inhibition) at 1uM” value is reported as 12.6%.
For CCOC(=O)N1CCC2(CC1)C(C#N)=C(N)Oc1c2sc2nc(C)cc(C)c12, the “hERG current change (%, negative = inhibition) at 1uM” value was 8.88%.
In the case of O=[N+]([O-])c1ccc(N2CCCC2)nc1N1CCCC1, the “hERG current change (%, negative = inhibition) at 1uM” value is reported as 14.6%.
Cc1cccc(C)c1NC(=O)COC(=O)Cc1ccsc1 was tested, and the “hERG current change (%, negative = inhibition) at 1uM” value was 9.06%.
In the case of Cc1ccc(/C=C/C(=O)O)cc1S(=O)(=O)Nc1ccccc1C(=O)O, the “hERG current change (%, negative = inhibition) at 1uM” value is reported as 10.8%.
With Cc1cccnc1CCNC(=O)CCc1nnc(-c2ccccc2)o1 the “hERG current change (%, negative = inhibition) at 1uM” value was 6.65%.
In the case of CC(C)CCNC(=O)C(=O)NCC1OCCCN1S(=O)(=O)c1cccs1 (stereo not shown), the “hERG current change (%, negative = inhibition) at 1uM” value is reported as 6.33%.
With CC(=O)C1=C(C)Nc2ncnn2C1c1cccc(Br)c1 (stereo not shown) the “hERG current change (%, negative = inhibition) at 1uM” value was 1.05%.
With COc1ccc(OC)c(CNS(=O)(=O)c2cc(CN3C(=O)c4cccnc4C3=O)ccc2OC)c1 the “hERG current change (%, negative = inhibition) at 1uM” value was -23.9%.
For CCOC(=O)c1nn(-c2ccc(Cl)cc2)c2nc(-c3ccc(C)cc3)c(C#N)c(=O)n12, the “hERG current change (%, negative = inhibition) at 1uM” value was 5.16%.
In the case of COc1ccc(OC)c(C(=O)CCCC(=O)c2cc(OC)ccc2OC)c1, the “hERG current change (%, negative = inhibition) at 1uM” value is reported as 20.3%.
For Nc1nncn1C(=O)CCCN1C(=O)c2ccccc2C1=O, the “hERG current change (%, negative = inhibition) at 1uM” value was -5.39%.
In the case of COCCCNC(=O)CCc1c(C)nc2c(c(C)nn2-c2ccc(C)cc2)c1C, the “hERG current change (%, negative = inhibition) at 1uM” value is reported as 7.49%.
C=CCOC(=O)COc1cc(C)cc2oc(=O)c3c(c12)CCC3 was tested, and the “hERG current change (%, negative = inhibition) at 1uM” value was -0.287%.
CCc1ccc(N(C(=O)c2csnn2)C(C(=O)NC(C)(C)CC)c2ccccn2)cc1 (stereo not shown) was tested, and the “hERG current change (%, negative = inhibition) at 1uM” value was -24.9%.
In the case of Cn1c(NC(=O)C[n+]2cc(-c3ccc(Cl)cc3)n3c2CCC3)cc(=O)n(C)c1=O.[Cl-], the “hERG current change (%, negative = inhibition) at 1uM” value is reported as 15.5%.
With CCOC(=O)c1sc(NC(=O)c2c(C)nn(Cc3ccccc3)c2C)cc1C the “hERG current change (%, negative = inhibition) at 1uM” value was 9.92%.
CC(=O)NN1C(=O)/C(=C2/Sc3ccccc3N2C)SC1=S was tested, and the “hERG current change (%, negative = inhibition) at 1uM” value was 14.7%.
In the case of CC(=O)Nc1ccc(N(C(=O)CNC(=O)c2ccco2)C(C(=O)NCc2ccco2)c2ccccc2)cc1 (stereo not shown), the “hERG current change (%, negative = inhibition) at 1uM” value is reported as 15.8%.
With COC(=O)c1ccc(/C(O)=C(\C#N)c2nc3ccccc3s2)cc1 the “hERG current change (%, negative = inhibition) at 1uM” value was 18.5%.
With CC(=O)Nc1ccc(S(=O)(=O)Nc2ccc3c(c2)C(=O)OC3)cc1 the “hERG current change (%, negative = inhibition) at 1uM” value was 16.7%.
Cc1nnc(SCC(=O)Nc2c(Cl)cccc2Cl)[nH]c1=O was tested, and the “hERG current change (%, negative = inhibition) at 1uM” value was 16.8%.
O=C1C(Cl)=C(N2CCC(C(=O)O)CC2)C(=O)c2ccccc21 was tested, and the “hERG current change (%, negative = inhibition) at 1uM” value was -6.15%.
In the case of O=C(/C=C/c1cccs1)c1ccc(Br)cc1, the “hERG current change (%, negative = inhibition) at 1uM” value is reported as 5.65%.
